These results are taken from paper PMC9792514, “C-type lectin-like receptor (CLEC)-2, the ligand of podoplanin, induces morphological changes in podocytes” (Scientific Reports, 2022).

Data set [1] deals with the molecule itself. The data set is described as follows: native gel or EMSA; Blue Native PAGE of the purified recombinant proteins in aqueous solution.
Another data set has as its target T1, mouse podoplanin (PDPN) (mouse (endogenous in primary cultured …, UniProt Q62011 23-172)).
T1 sequence (looked up): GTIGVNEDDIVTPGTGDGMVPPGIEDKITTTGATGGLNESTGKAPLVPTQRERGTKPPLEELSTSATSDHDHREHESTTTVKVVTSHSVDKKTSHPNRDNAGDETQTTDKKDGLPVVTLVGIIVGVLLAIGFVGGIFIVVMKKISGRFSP
The data set is described as follows: cell-based or functional assay.

B1: Fc-CLEC-2, a fusion of the Fc tag and C-terminal extracellular domain of human CLEC-2 ([…]) (Fc fusion)
chain: not shown
notes: C-type lectin-like receptor 2 (CLEC-2), human, C-terminal extracellular domain, […]; Tetramer of about 240 kDa by Blue Native PAGE; Fc alone is also a tetramer; also called Fc-human CLEC-2; recombinant Fc-human CLEC-2
For the molecule B1, the “stoichiometry N” value in data set [1] was found to be 4. The “pERM/ERM ratio by Western blot in cultured podocytes treated with Fc-CLEC-2 at 37 C for 1 h, against Fc” value with mouse podoplanin (PDPN) came out at 0.47 fold.
